Key:
HCI-012 cells = type: cell-based, human; details: 24 hour
BxPC3 cells = type: cell-based; details: 24 hour; 20 μM Lapatinib

Structure (SMILES): CS(=O)(=O)CCNCc1ccc(-c2ccc3ncnc(Nc4ccc(OCc5cccc(F)c5)c(Cl)c4)c3c2)o1 [Lapatinib]
- Akt phosphorylation (HCI-012 cells): partially reduced
- EGFR, HER2, or HER3 levels (HCI-012 cells): did not alter
- Erk phosphorylation (HCI-012 cells): strongly suppressed
- RBF3 upregulation of the ER stress markers GRP78, ATF4, XBP1s, or CHOP, with Lapatinib (HCI-012 cells): did not influence
- expression of ER stress markers (HCI-012 cells): nor did it alter
- HER1-3 expression, or Akt or Erk phosphorylation (BxPC3 cells): no significant effect
